{
  "source": "PubChem BioAssay (Tox21)",
  "note": "Several values for one entry are separate records, joined by “and”; a condition that tells them apart may be missing. Identical values can stand only once. This list was built around the results that the source calls inconclusive (neither active nor inactive); the mix of calls is not that of the screen. Potencies of inconclusive entries are doubtful fits and often do not repeat. Activity calls are given as the source filed them. Unless noted, the call rests on the fitted dose curve; in most records, active means well fitted cell-killing curve with a large enough effect in the repeat runs; inconclusive means weak or mixed curves; inactive means no such curve, though single readings can be large or run the other way. On the % scale 0 is the no-effect control and ±100 the full control effect; potency means the concentration at half of the fitted maximal effect; tags describe the fitted curve by direction and shape or compound fluorescence and quenching.",
  "data": [
    {"test_system": "not listed separately", "test": "qHTS assay for small molecule activators of the heat shock response signaling pathway (AID 743210; active means well fitted activation curve with a large enough effect in the signal ratio in the repeat runs, with a control signal flat, not every such curve was filed as active; inconclusive means weak or mixed curves; the % refers to the signal ratio)", "settings": "HeLa HSE-bla reporter, beta-lactamase ratio, 5 h; activation: at 62.6 µM (top of the series)", "outline": "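Beta-lactamase reporter read-out: FRET substrate fluorescence after 2.5 h at RT, following 5 h compound treatment at 37 C of HeLa cells carrying HSE-driven bla reporter; quantitative HTS format.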", "values": [
      {"smiles": "Cc1nc2ccccn2c(=O)c1CCN1CCC(C(=O)c2ccc(F)cc2)CC1", "Potency": "inactive"},
      {"smiles": "c1cc2ccc3ccc4ccc5cccc6c(c1)c2c3c4c56", "Potency": "inconclusive: 1.95 µM [activator]"},
      {"smiles": "Cc1[nH]cnc1-c1ccc(Cl)cc1", "Potency": "inactive"},
      {"smiles": "OCC(CO)(CO)COCC(CO)(CO)CO", "Potency": "inactive"},
      {"smiles": "Oc1ccc(Cc2ccccc2)cc1", "Potency": "inconclusive: 57.1 µM [falling, partial curve, poor fit]"},
      {"smiles": "CC1(C)O[C@@H]2C[C@H]3[C@@H]4CCC5=CC(=O)CC[C@]5(C)[C@@]4(F)[C@@H](O)C[C@]3(C)[C@]2(C(=O)CCl)O1", "Potency": "inconclusive: 33.5 µM [activator, single point]"},
      {"smiles": "Cc1cc(N)c2cc(NC(=O)Nc3ccc4nc(C)cc(N)c4c3)ccc2n1", "Potency": "inconclusive: 29.8 µM"},
      {"smiles": "CCCCc1cc2ccccc2c(OCCN(C)C)n1", "Potency": "inactive"}
    ]},
    {"test_system": "not listed separately", "test": "qHTS assay to identify small molecule agonists of the peroxisome proliferator-activated receptor delta (PPARd) signaling pathway - cell viability counter screen (AID 743211); further: nearly all actives have a fitted effect of over 55% in size", "settings": "PPARd-bla HEK293H viability, CellTiter-Glo luminescence, 17 h; activity change, negative = cytotoxicity: at 62.6 µM (top of the series)", "outline": "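Counter screen for cytotoxicity run in parallel with the PPARd reporter screen. Beta-lactamase reporter HEK293H cells exposed to compounds 17 h; ATP-based CellTiter-Glo luminescence quantified viability.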", "values": [
      {"smiles": "Cc1ccc(O)c([C@H](CCN(C(C)C)C(C)C)c2ccccc2)c1", "Potency": "inconclusive: 33.5 µM [cytotoxic, partial curve, poor fit]"},
      {"smiles": "C[C@H]1[C@H](NC(=O)/C(=N/OC(C)(C)C(=O)O)c2csc(N)n2)C(=O)N1S(=O)(=O)O", "note": "(stereo in doubt)", "Potency": "inactive"},
      {"smiles": "c1cc2ccc3ccc4ccc5cccc6c(c1)c2c3c4c56", "activity change, negative = cytotoxicity": "inactive: -28.1% [at 2.7 µM]"},
      {"smiles": "CC1(C)S[C@@H]2[C@H](NC(=O)COc3ccccc3)C(=O)N2[C@H]1C(=O)O", "Potency": "inactive"},
      {"smiles": "CCCCCCCCCCCCC", "Potency": "inconclusive: 19.5 µM [cytotoxic, single point]"},
      {"smiles": "CCCCCCCCCCCCCC(=O)OC", "Potency": "inactive"},
      {"smiles": "CCCCOc1ccc(CC(=O)NO)cc1", "Potency": "inconclusive: 29.8 µM [cytotoxic, partial curve]"},
      {"smiles": "Oc1ccc(Cc2ccccc2)cc1", "Potency": "inconclusive: 45.3 µM [cytotoxic, partial curve]"},
      {"smiles": "Cc1cc(N)c2cc(NC(=O)Nc3ccc4nc(C)cc(N)c4c3)ccc2n1", "Potency": "inconclusive: 29.8 µM [cytotoxic, single point]"},
      {"smiles": "O=c1n(CCCN2CCN(c3cccc(Cl)c3)CC2)nc2ccccn12", "Potency": "inconclusive: 24.5 µM [cytotoxic, single point]"},
      {"smiles": "NCCCCCCNCCCCCCN", "Potency": "inactive"},
      {"smiles": "CCCCc1cc2ccccc2c(OCCN(C)C)n1", "Potency": "inconclusive: 33.5 µM [cytotoxic, single point]"}
    ]},
    {"target": "Peroxisome proliferator-activated receptor delta (Homo sapiens) (UniProt Q03181)", "sequence (Q03181 whole entry, looked up)": "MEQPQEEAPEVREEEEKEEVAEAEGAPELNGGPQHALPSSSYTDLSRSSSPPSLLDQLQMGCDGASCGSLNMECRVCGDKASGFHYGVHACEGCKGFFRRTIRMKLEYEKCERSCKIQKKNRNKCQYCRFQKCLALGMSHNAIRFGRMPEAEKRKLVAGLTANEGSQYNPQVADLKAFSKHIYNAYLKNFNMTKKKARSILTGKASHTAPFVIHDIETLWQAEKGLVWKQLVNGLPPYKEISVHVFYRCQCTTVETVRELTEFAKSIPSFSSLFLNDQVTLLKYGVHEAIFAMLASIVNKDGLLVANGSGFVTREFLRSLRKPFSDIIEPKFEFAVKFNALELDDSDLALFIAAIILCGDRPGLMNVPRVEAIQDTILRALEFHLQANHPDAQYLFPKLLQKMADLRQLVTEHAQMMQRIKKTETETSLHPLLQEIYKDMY", "test": "qHTS assay to identify small molecule agonists of the peroxisome proliferator-activated receptor delta (PPARd) signaling pathway (AID 743212; calls by dose curve)", "settings": "HEK293H PPARd-UAS-bla, beta-lactamase FRET ratio, 17 h; activation: at 62.6 µM (top of the series) unless noted", "outline": "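Read-out: beta-lactamase FRET fluorescence after 2 h room-temperature incubation with LiveBLAzer B/G substrate. Cells were HEK293H carrying a UAS-bla reporter for PPARd, treated at 37 C with DMSO-dissolved compounds.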", "values": [
      {"smiles": "Cc1cc2c(cc1S(N)(=O)=O)S(=O)(=O)CCC2", "activation": "inconclusive: -7.2%"},
      {"smiles": "C=C(C)C(=O)OCCC[Si](Cl)(Cl)Cl", "Potency": "inactive"},
      {"smiles": "CN(CC1(C)CCCO1)S(=O)(=O)c1ccc(Cl)c(S(N)(=O)=O)c1", "note": "(configuration not stated)", "Potency": "inactive"},
      {"smiles": "CCOCCn1c(N2CCCN(C)CC2)nc2ccccc21", "Potency": "inactive"},
      {"smiles": "c1cc2ccc3ccc4ccc5cccc6c(c1)c2c3c4c56", "Potency": "inconclusive: 1.95 µM [rising, partial curve]"},
      {"smiles": "COc1cc(C=O)ccc1O", "activation": "inconclusive: 11.9%"},
      {"smiles": "CC(=O)O[C@H](CC(=O)[O-])C[N+](C)(C)C", "Potency": "inactive"},
      {"smiles": "CCCCOc1ccc(CC(=O)NO)cc1", "activation": "inconclusive: -8.96%"},
      {"smiles": "CC(C)OC(=O)c1ccccc1", "Potency": "inactive"},
      {"smiles": "Oc1cccc2cc3cccc(O)c3c(O)c12", "Potency": "inactive"}
    ]},
    {"test_system": "not listed separately", "test": "qHTS assay to identify small molecule antagonists of the peroxisome proliferator-activated receptor delta (PPARd) signaling pathway - cell viability counter screen (AID 743213); further: nearly all actives have a fitted effect of over 50% in size", "settings": "PPARd-bla HEK293H viability, CellTiter-Glo luminescence, 17 h; viability change, negative = cytotoxic: at 62 µM (top of the series) unless noted", "outline": "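CellTiter-Glo was added to PPARd-bla HEK293H wells following 17 h compound treatment in the presence of 300 nM L165041. Luminescence was recorded after 30 min at room temperature.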", "values": [
      {"smiles": "Cc1ccc(O)c([C@H](CCN(C(C)C)C(C)C)c2ccccc2)c1", "Potency": "inconclusive: 29.8 µM [cytotoxic, partial curve, poor fit]"},
      {"smiles": "c1cc2ccc3ccc4ccc5cccc6c(c1)c2c3c4c56", "viability change, negative = cytotoxic": "inactive: -10.9% [at 2.83 µM]"},
      {"smiles": "CCCCCCCCCCCCC", "Potency": "inconclusive: 0.49 µM [cytotoxic, single point]"},
      {"smiles": "CCC1COC(=O)O1", "note": "(configuration not stated)", "Potency": "inactive"},
      {"smiles": "CCC(=O)O[C@]1(C(=O)SCF)[C@H](C)C[C@H]2[C@@H]3C[C@H](F)C4=CC(=O)C=C[C@]4(C)[C@@]3(F)[C@@H](O)C[C@@]21C", "Potency": "inconclusive: 33.5 µM [cytotoxic, single point]"},
      {"smiles": "COCCc1ccc(OCC(O)CNC(C)C)cc1", "note": "(configuration not stated)", "Potency": "inconclusive: 0.75 µM [cytotoxic, single point]"},
      {"smiles": "CC1(C)C(=O)N(Cl)C(=O)N1Br", "Potency": "inactive"},
      {"smiles": "COc1cc(C=O)ccc1O", "Potency": "inconclusive: 19.6 µM [cytotoxic, single point] and inactive"},
      {"smiles": "CCCCOc1ccc(CC(=O)NO)cc1", "Potency": "inconclusive: 26.6 µM [cytotoxic, partial curve, poor fit]"},
      {"smiles": "Cc1cc(N)c2cc(NC(=O)Nc3ccc4nc(C)cc(N)c4c3)ccc2n1", "Potency": "inconclusive: 11.9 µM [cytotoxic, single point]"},
      {"smiles": "O=c1n(CCCN2CCN(c3cccc(Cl)c3)CC2)nc2ccccn12", "viability change, negative = cytotoxic": "inconclusive: -32.1% [cytotoxic]"},
      {"smiles": "CN(C)CCOC(C)(c1ccccc1)c1ccccn1", "note": "(configuration not stated)", "Potency": "inconclusive: 2.46 µM [cytotoxic, partial curve, poor fit] and inconclusive: 119 nM [cytotoxic, single point]"}
    ]}
  ]
}
